A compilation of properties of binary mixtures (doi:10.1007/s10953-023-01246-7)
The densities may have been worked out from excess volumes.

Experiment: xn = mol fraction of the nth substance listed
Conditions: 100 kPa

CCOS(=O)(=O)[O-].CC[n+]1ccn(C)c1 + OCCO
mass density [kg/m3]
Conditions | x1 = 0.1003 | x1 = 0.1982 | x1 = 0.2999 | x1 = 0.4002 | x1 = 0.5005 | x1 = 0.5992 | x1 = 0.6994 | x1 = 0.8001 | x1 = 0.8993
293.15 K | – | 1165.7 | – | 1195.7 | 1206.5 | 1215.5 | 1223.1 | 1229.7 | 1237.5
298.15 K | 1141 | 1162.1 | 1178 | 1192.1 | 1203.1 | 1212.1 | 1219.6 | 1226.2 | 1234
303.15 K | 1137.5 | 1158.6 | 1174.5 | 1188.6 | 1199.6 | – | – | 1222.8 | 1230.6
308.15 K | 1133.9 | – | – | 1185.1 | 1196.1 | 1205.2 | 1212.8 | 1219.4 | 1227.2
313.15 K | 1130.4 | – | 1167.5 | 1181.6 | 1192.6 | 1201.7 | 1209.4 | 1216 | 1223.8
318.15 K | 1126.9 | – | 1164 | – | 1189.2 | 1198.3 | 1206 | – | –
323.15 K | – | 1144.4 | 1160.5 | 1174.7 | 1185.8 | 1194.9 | 1202.6 | 1209.3 | 1217
328.15 K | 1119.7 | 1140.9 | 1157 | 1171.3 | 1182.4 | 1191.6 | 1199.2 | 1205.9 | 1213.7
333.15 K | – | – | 1153.5 | 1167.9 | – | 1188.2 | 1195.8 | 1202.6 | 1210.4
338.15 K | 1112.5 | 1133.8 | 1150 | 1164.4 | 1175.6 | – | 1192.5 | 1199.2 | 1207.1
343.15 K | 1109 | 1130.3 | 1146.5 | 1161 | – | – | 1189.2 | – | 1203.8
